# From the supplement of paper PMC8728848
# The other results are listed elsewhere or left out.
# Experiments:
# Assay in all cases: glycan array binding signal (z-score within array); higher = stronger binding
# Settings in all cases: glycan notation: IUPAC condensed, linker removed
# GlcNAc(b1-3)Man = target: GlcNAc(b1-3)Man
# How it was run: (§1)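 From the Consortium for Functional Glycomics database, 3228 arrays were curated, keeping only those whose protein sequence was available. Binding is given as a within-array Z-score averaged across arrays sharing a protein sequence and across linkers. Negative Z-scores can be read as non-binding.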
# [1] = target: GlcNAc(b1-3)[GlcNAc(b1-4)][GlcNAc(b1-6)]GlcNAc
# How it was run: as §1
# [2] = target: GlcNAc(b1-3)[GlcNAc(b1-6)]Gal(b1-4)GlcNAc
# How it was run: as §1
# [3] = target: GlcNAc(b1-3)[GlcNAc(b1-6)]GalNAc
# How it was run: as §1
# [4] = target: GlcNAc(b1-4)Gal(b1-4)GlcNAc
# How it was run: as §1
# GlcNAc(b1-4)GlcNAc = target: GlcNAc(b1-4)GlcNAc
# How it was run: as §1
# [5] = target: GlcNAc(b1-4)GlcNAc(b1-4)GlcNAc
# How it was run: as §1
# [6] = target: GlcNAc(b1-4)GlcNAc(b1-4)GlcNAc(b1-4)GlcNAc(b1-4)GlcNAc
# How it was run: as §1
# [7] = target: GlcNAc(b1-4)GlcNAc(b1-4)GlcNAc(b1-4)GlcNAc(b1-4)GlcNAc(b1-4)GlcNAc
# How it was run: as §1
# [8] = target: GlcNAc(b1-4)[GlcNAc(b1-6)]GalNAc
# How it was run: as §1
# [9] = target: GlcNAc(b1-6)Gal(b1-4)GlcNAc
# How it was run: as §1
# GlcNAc(b1-6)GalNAc = target: GlcNAc(b1-6)GalNAc
# How it was run: as §1
# [10] = target: GlcNAc6S(b1-3)Gal(b1-4)GlcNAc
# How it was run: as §1
# Kdn(a2-3)Gal(b1-3)GalNAc = target: Kdn(a2-3)Gal(b1-3)GalNAc
# How it was run: as §1
# Kdn(a2-3)Gal(b1-3)GlcNAc = target: Kdn(a2-3)Gal(b1-3)GlcNAc
# How it was run: as §1
# Kdn(a2-3)Gal(b1-4)Glc = target: Kdn(a2-3)Gal(b1-4)Glc
# How it was run: as §1
# Kdn(a2-3)Gal(b1-4)GlcNAc = target: Kdn(a2-3)Gal(b1-4)GlcNAc
# How it was run: as §1
# [11] = target: Kdn(a2-3)Gal(b1-4)[Fuc(a1-3)]GlcNAc
# How it was run: as §1
# Kdn(a2-6)Gal(b1-4)GlcNAc = target: Kdn(a2-6)Gal(b1-4)GlcNAc
# How it was run: as §1
# [12] = target: Man(a1-2)Man(a1-2)Man(a1-3)Man
# How it was run: as §1
# [13] = target: Man(a1-2)Man(a1-2)Man(a1-6)[Man(a1-3)]Man
# How it was run: as §1
# Man(a1-2)Man(a1-3)Man = target: Man(a1-2)Man(a1-3)Man
# How it was run: as §1
# [14] = target: Man(a1-2)Man(a1-3)[Man(a1-2)Man(a1-6)]Man
# How it was run: as §1
# [15] = target: Man(a1-2)Man(a1-3)[Man(a1-2)Man(a1-6)]Man(a1-6)[Man(a1-2)Man(a1-2)Man(a1-3)]Man
# How it was run: as §1
# [16] = target: Man(a1-2)Man(a1-3)[Man(a1-2)Man(a1-6)]Man(a1-6)[Man(a1-2)Man(a1-2)Man(a1-3)]Man(b1-4)GlcNAc(b1-4)GlcNAc
# How it was run: as §1
# [17] = target: Man(a1-2)Man(a1-3)[Man(a1-6)]Man(a1-6)[Man(a1-2)Man(a1-3)]Man(b1-4)GlcNAc(b1-4)GlcNAc
# How it was run: as §1
# [18] = target: Man(a1-2)Man(a1-6)[Man(a1-3)]Man(a1-6)[Man(a1-2)Man(a1-2)Man(a1-3)]Man
# How it was run: as §1
# [19] = target: Man(a1-2)Man(a1-6)[Man(a1-3)]Man(a1-6)[Man(a1-2)Man(a1-2)Man(a1-3)]Man(b1-4)GlcNAc(b1-4)GlcNAc
# How it was run: as §1
# Man(a1-3)[Man(a1-6)]Man = target: Man(a1-3)[Man(a1-6)]Man
# How it was run: as §1
# [20] = target: Man(a1-3)[Man(a1-6)]Man(a1-6)[Man(a1-2)Man(a1-3)]Man(b1-4)GlcNAc(b1-4)GlcNAc
# How it was run: as §1
# [21] = target: Man(a1-3)[Man(a1-6)]Man(a1-6)[Man(a1-3)]Man
# How it was run: as §1
# [22] = target: Man(a1-3)[Man(a1-6)]Man(a1-6)[Man(a1-3)]Man(b1-4)GlcNAc(b1-4)GlcNAc
# How it was run: as §1
# [23] = target: Man(a1-3)[Man(a1-6)]Man(b1-4)GlcNAc(b1-4)GlcNAc
# How it was run: as §1
# [24] = target: Man(a1-3)[Man(a1-6)]Man(b1-4)GlcNAc(b1-4)[Fuc(a1-6)]GlcNAc
# How it was run: as §1
# Man(a1-6)Man = target: Man(a1-6)Man
# How it was run: as §1
# Man(b1-4)GlcNAc = target: Man(b1-4)GlcNAc
# How it was run: as §1
# MurNAc(b1-4)GlcNAc = target: MurNAc(b1-4)GlcNAc
# How it was run: as §1
# Neu5Ac(a2-3)Gal = target: Neu5Ac(a2-3)Gal
# How it was run: as §1
binder,measurement,setting,value
Clone730PsrP (Streptococcus pneumoniae) (protein) MDHHHHHHHHHHASENLYFQGAMVVGSQTAAATEATAKKVEEDRKKPASDYVASVTNVNLQSYAKRRKRSVDSIEQLLASIKNAAVFSGNTIVNGAPAINASLNIAKSETKVYTGEGVDSVYRVPIYYKLKVTNDGSKLTFTYTVTYVNPKTNDLGNISSMRPGYSIYNSGTSTQTMLTLGSDLGKPSGVKNYITDKNGRQVLSYNTSTMTTQGSGYTWGNGAQMNGFFAKKGYGLTSSWTVPITGTDTSFTFTPYAARTDRIGINYFNGGGKVVESSTT,glycan array binding signal (z-score),GlcNAc(b1-3)Man,1.37
same,glycan array binding signal (z-score),[1],-0.013
same,glycan array binding signal (z-score),[2],-0.514
same,glycan array binding signal (z-score),[3],-0.052
same,glycan array binding signal (z-score),[4],0.625
same,glycan array binding signal (z-score),GlcNAc(b1-4)GlcNAc,0.226
same,glycan array binding signal (z-score),[5],0.159
same,glycan array binding signal (z-score),[6],0.515
same,glycan array binding signal (z-score),[7],-0.063
same,glycan array binding signal (z-score),[8],-0.5
same,glycan array binding signal (z-score),[9],0.812
same,glycan array binding signal (z-score),GlcNAc(b1-6)GalNAc,0.917
same,glycan array binding signal (z-score),[10],0.219
same,glycan array binding signal (z-score),Kdn(a2-3)Gal(b1-3)GalNAc,0.749
same,glycan array binding signal (z-score),Kdn(a2-3)Gal(b1-3)GlcNAc,-0.543
same,glycan array binding signal (z-score),Kdn(a2-3)Gal(b1-4)Glc,0.642
same,glycan array binding signal (z-score),Kdn(a2-3)Gal(b1-4)GlcNAc,-0.2
same,glycan array binding signal (z-score),[11],0.401
same,glycan array binding signal (z-score),Kdn(a2-6)Gal(b1-4)GlcNAc,0.363
same,glycan array binding signal (z-score),[12],-0.568
same,glycan array binding signal (z-score),[13],0.54
same,glycan array binding signal (z-score),Man(a1-2)Man(a1-3)Man,-0.436
same,glycan array binding signal (z-score),[14],-0.666
same,glycan array binding signal (z-score),[15],-0.585
same,glycan array binding signal (z-score),[16],0.027
same,glycan array binding signal (z-score),[17],-0.558
same,glycan array binding signal (z-score),[18],-0.603
same,glycan array binding signal (z-score),[19],0.366
same,glycan array binding signal (z-score),Man(a1-3)[Man(a1-6)]Man,0.888
same,glycan array binding signal (z-score),[20],1.08
same,glycan array binding signal (z-score),[21],2.14
same,glycan array binding signal (z-score),[22],0.242
same,glycan array binding signal (z-score),[23],-0.393
same,glycan array binding signal (z-score),[24],-0.591
same,glycan array binding signal (z-score),Man(a1-6)Man,3.24
same,glycan array binding signal (z-score),Man(b1-4)GlcNAc,1.13
same,glycan array binding signal (z-score),MurNAc(b1-4)GlcNAc,0.25
same,glycan array binding signal (z-score),Neu5Ac(a2-3)Gal,-0.123
